About 14,000 (4.5%) of roughly 310,000 compounds showed an effect of 50% or more. The effect is printed as a negative number. This is one part of the list.

Here are results for 88 compounds from PMC4336329 (PLoS ONE, 2015).
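Also: peak tail current of the secondary pulse compared with the same well before compound.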

Chain of human ether-à-go-go-related gene (hERG) potassium channel (Q12809 whole entry, looked up): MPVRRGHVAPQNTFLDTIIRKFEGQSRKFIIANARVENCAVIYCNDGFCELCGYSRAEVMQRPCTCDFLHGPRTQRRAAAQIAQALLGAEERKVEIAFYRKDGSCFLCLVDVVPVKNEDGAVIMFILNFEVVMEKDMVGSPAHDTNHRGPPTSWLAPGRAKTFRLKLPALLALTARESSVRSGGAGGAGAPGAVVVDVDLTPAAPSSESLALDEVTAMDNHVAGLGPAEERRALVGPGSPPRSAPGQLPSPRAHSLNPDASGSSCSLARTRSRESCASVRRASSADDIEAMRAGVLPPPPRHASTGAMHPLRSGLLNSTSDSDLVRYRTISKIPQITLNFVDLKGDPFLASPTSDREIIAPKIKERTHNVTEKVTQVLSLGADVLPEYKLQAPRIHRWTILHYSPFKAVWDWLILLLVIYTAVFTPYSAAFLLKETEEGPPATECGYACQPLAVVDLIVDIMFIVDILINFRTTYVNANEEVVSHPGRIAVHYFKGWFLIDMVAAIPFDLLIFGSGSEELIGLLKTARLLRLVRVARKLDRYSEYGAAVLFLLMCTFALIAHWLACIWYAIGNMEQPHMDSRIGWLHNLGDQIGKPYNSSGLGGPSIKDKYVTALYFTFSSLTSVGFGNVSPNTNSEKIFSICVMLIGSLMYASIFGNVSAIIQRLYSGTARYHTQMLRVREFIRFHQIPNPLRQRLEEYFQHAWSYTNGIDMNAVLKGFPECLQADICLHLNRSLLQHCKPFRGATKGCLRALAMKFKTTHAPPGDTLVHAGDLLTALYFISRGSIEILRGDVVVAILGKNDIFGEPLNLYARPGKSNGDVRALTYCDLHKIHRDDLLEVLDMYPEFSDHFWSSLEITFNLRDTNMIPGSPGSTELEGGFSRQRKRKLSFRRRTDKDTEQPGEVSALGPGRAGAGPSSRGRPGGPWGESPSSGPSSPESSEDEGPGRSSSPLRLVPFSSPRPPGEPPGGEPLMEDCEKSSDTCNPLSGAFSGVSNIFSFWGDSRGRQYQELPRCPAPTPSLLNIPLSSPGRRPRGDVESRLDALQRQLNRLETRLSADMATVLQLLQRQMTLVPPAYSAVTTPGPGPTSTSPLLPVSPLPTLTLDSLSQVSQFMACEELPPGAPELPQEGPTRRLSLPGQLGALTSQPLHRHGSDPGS

The test concerns the target human ether-à-go-go-related gene (hERG) potassium channel (human, UniProt Q12809). Nature of the test: primary screen, population patch clamp on CHO cells stably expressing hERG.
As for `COc1ccc2c(c1O)-c1c(OC)c(OC)cc3c1[C@H](C2)N(C)CC3`, the “hERG current change (%, negative = inhibition) at 10uM” value is reported as -36.5%. To `CC(=O)Nc1ccc(NS(=O)(=O)c2cn(C)c(=O)n(C)c2=O)cc1` belongs -0.872%; to `CC1=CC(c2ccccc2)n2nc(NS(=O)(=O)c3ccc(C)cc3)nc2N1` (stereo not shown), -12.1%. The result for `CCOc1ccc(-c2nnc(-c3cccnc3)o2)cc1OCC` reads -42.9%; that for `O=C(OCc1nnc(-c2ccc(Cl)cc2)o1)c1ccc(=O)n(Cc2ccccc2)n1`, -7.02%.

Consider `O=C(O)c1cc(N/N=C/c2ccc(N3CCOCC3)cc2)ccc1Cl`, for which the “hERG current change (%, negative = inhibition) at 10uM” value was -0.775%. To `O=C1Nc2ccc(F)cc2C12OCCO2` belongs 15.5%.

`Cc1cc(-c2ccccc2)c2ccc(NC(=O)C(C)(C)C)nc2n1`: the “hERG current change (%, negative = inhibition) at 10uM” value was 6.6%. The result for `COCCN1CC(C(=O)N2CCC(Oc3ccccc3OC)CC2)CCC1=O` (stereo not shown) reads -2.66%; that for `O=C(/C=C/c1cccc([N+](=O)[O-])c1)NCCSCc1cccc(Cl)c1`, -18.9%.

In the case of `COc1ccc(CC(=O)OCC(=O)Nc2ccc3c(c2)OCO3)cc1OC`, the “hERG current change (%, negative = inhibition) at 10uM” value was 6.13%. To `C=C(C)CN1CCN(c2c(CCC#N)c(C)c(C#N)c3nc4ccccc4n23)CC1` belongs -25.8%; to `S=C(Nc1cccc2ccccc12)N1CCN(c2ncccn2)CC1`, 9.94%. Turning to `C=C(C)Cn1c(=S)[nH]c2ccccc2c1=O`, the “hERG current change (%, negative = inhibition) at 10uM” value is reported as 5.47%. To `CCOC(=O)c1c(C=O)c(C)n(Cc2ccccc2Cl)c1C` belongs -2.09%.

Turning to `CC(C)c1nnc(SCC(=O)NC2CCCC2)n1C`, the “hERG current change (%, negative = inhibition) at 10uM” value is given as 31.9%. The result for `CC(C)c1[nH]c(=O)c(C#N)c2c1COC(C)(C)C2` reads -26.1%; that for `O=C1NC(=O)N(c2ccccc2)C(=O)/C1=C/c1ccc2c(c1)Cc1ccccc1-2`, 11.5%.

Regarding `CN(C)C=Nc1c(Br)cc(Br)c2nonc12`, the “hERG current change (%, negative = inhibition) at 10uM” value was -29.9%. The result for `CC(C)Oc1ccc(C2c3c(oc4ccccc4c3=O)C(=O)N2CCCN2CCOCC2)cc1` (stereo not shown) reads -39.7%; that for `COc1ccc(S(=O)(=O)NCC(=O)N(CC(=O)NCc2ccco2)Cc2ccc(F)cc2)cc1`, 1.94%; that for `O=C(Nc1cc(S(=O)(=O)N2CCOCC2)ccc1N1CCCC1)c1ccc(F)cc1`, -82.3%. The result for `CCOC(=O)c1c(C)n(-c2ccc(C)cc2)c2c(CC(C)=O)c(Br)c(OC)c(O)c12` reads 23.2%; that for `Cc1ccc(NC(=O)/C(C#N)=C/c2ccsc2)c(C)c1`, 12.7%.

With `CN(Cc1nc(-c2cccnc2)no1)S(=O)(=O)c1ccccc1`, the “hERG current change (%, negative = inhibition) at 10uM” value is given as -14.2%. The result for `CCOC(=O)CSc1nc(C)cc(C)c1C#N` reads 11.4%; that for `O=C(OCCN=C1NS(=O)(=O)c2ccccc21)c1cccc([N+](=O)[O-])c1`, -3.7%. To `Cc1ccc(OCc2nnc(N)s2)cc1C` belongs 11.3%. Turning to `COc1ccc(C(C)=O)cc1CN1C(=O)NC2(CCCCCC2)C1=O`, the “hERG current change (%, negative = inhibition) at 10uM” value is given as -3.9%.

For the compound `COc1ccc(C(=O)/C=C/c2ccc(C)cc2)c(OC(=O)c2ccc([N+](=O)[O-])cc2)c1`, the “hERG current change (%, negative = inhibition) at 10uM” value was 7.29%. The result for `COc1ccccc1N1CCN(C(=O)c2ccc(COc3cccc4c3OC(C)(C)C4)cc2)CC1` reads -8.84%. The result for `COc1ccc(C(=O)Nc2ccccc2C(=O)Nc2cc(C)ccn2)cc1` reads -5.69%. Consider `Cc1ccc(CC(=O)NCCS(=O)c2ccc(C)cc2)cc1` (stereo not shown), for which the “hERG current change (%, negative = inhibition) at 10uM” value is recorded as -5.27%. To `CC(=O)NC(O)C(=O)c1ccco1` (stereo not shown) belongs 18.4%; to `O=C(NC(N1CCCCCC1)C(Cl)(Cl)Cl)c1ccccc1Cl` (stereo not shown), 6.05%; to `C=Cn1cc[n+](CC(=O)c2cc(C(C)(C)C)c(O)c(C(C)(C)C)c2)c1.[Br-]`, 8.17%.

`Cc1ccc(C)c(N(C(=O)Cn2nnc(-c3cccs3)n2)C(C(=O)NC2CC2)c2ccc(C)o2)c1` (stereo not shown): the “hERG current change (%, negative = inhibition) at 10uM” value turned out to be 0.588%.

Turning to `Cc1cc(C(=O)NCc2cccs2)ccc1[N+](=O)[O-]`, the “hERG current change (%, negative = inhibition) at 10uM” value was -11.4%.

Consider `Cc1nc2c3ccccc3nc(SCC(=O)N3CC(C)CC(C)C3)n2n1` (stereo not shown), for which the “hERG current change (%, negative = inhibition) at 10uM” value was -38%. To `Cc1c(C=O)c2ccccn2c1C(=O)c1cccc([N+](=O)[O-])c1` belongs 12.5%; to `CCc1nnc(NC(=O)CSc2nnc(COc3cccc(C)c3)o2)s1`, 15.9%. The result for `COc1ccc(CNC(=O)c2ccc(NC(=O)CC3SC(N4CCCCC4)=NC3=O)cc2)cc1` (stereo not shown) reads -4.22%.

On to `O=C(CSc1nc(O)c(C2CCCCC2)c(=O)[nH]1)Nc1ccc(F)cc1`, for which the “hERG current change (%, negative = inhibition) at 10uM” value is given as 22.4%. To `CN(C)/C=C/C(=O)c1cnc(-c2ccc(Cl)cc2)s1` belongs 15.4%. On to `O=c1[nH]c(=S)[nH]c2[nH]c(=S)[nH]c12`, for which the “hERG current change (%, negative = inhibition) at 10uM” value is listed as 14.5%. As to `Cc1nc(NS(=O)(=O)c2ccc(Br)cc2)c2c3c(sc2n1)CCC3`, the “hERG current change (%, negative = inhibition) at 10uM” value was -2.86%. To `CCN(CC)CCN1C(=O)C(O)=C(C(=O)c2sc(C)nc2C)C1c1cccnc1` (stereo not shown) belongs 11.3%; to `Cc1nc2ccccc2c(=O)n1-c1cccc(NS(=O)(=O)c2ccccc2)c1`, -20.9%. Consider `CCNC(=S)/N=C(/Nc1ccccc1)Nc1nc(C)cc(C)n1`, for which the “hERG current change (%, negative = inhibition) at 10uM” value is -6.85%. The result for `O=C(NNC(=O)C1CC(=O)N(Cc2ccccc2)C1)c1ccc(Br)cc1` (stereo not shown) reads -1.34%; that for `O=C(CSc1nnc(Cc2ccccc2)o1)c1ccccc1`, 10.3%.

`NS(=O)(=O)c1ccc(CCNC(=O)c2cc(-c3ccccc3)nc3ccccc23)cc1`: the “hERG current change (%, negative = inhibition) at 10uM” value was -10.4%. The result for `Cc1cc2nc(CCN(Cc3cccnc3)C(=S)Nc3ccc(F)cc3)[nH]c2cc1C` reads 9.94%; that for `O=C(NCc1cccc(Cl)c1)NCc1cccc(Cl)c1`, -43%; that for `Cc1ccc(NC(=O)NC(=O)COc2ccccc2C(N)=O)c(C)c1`, 4.05%. To `Nc1ccccc1CNc1nc(NCCO)nc2c1ncn2CCN1CCOCC1` belongs -4.12%; to `C#CCNC(=O)C1=C[C@H](c2cn(C(C)=O)c3ccccc23)[C@@H](CCCO)[C@H](OCC)O1`, -36.9%. The result for `CC(=O)c1ccc(OC(=O)C2CSC3(C)CCC(=O)N23)cc1` (stereo not shown) reads 12.4%; that for `CCN(CC)CC.O=C1NC(=S)S/C1=C1\Sc2ccccc2N1CCCS(=O)(=O)O`, 24%; that for `CCOC(=O)CN(c1cccc(C(C)=O)c1)S(C)(=O)=O`, 0.84%. Regarding `CC(C)C(=O)Nc1ccc(N2CCCC2)c(Cl)c1`, the “hERG current change (%, negative = inhibition) at 10uM” value is recorded as 35%.

For the compound `CCOC(=O)c1c(NCC(C)C)c2ccccc2[nH]c1=O`, the “hERG current change (%, negative = inhibition) at 10uM” value was -1.01%. Consider `CC(OC(=O)c1cc2c(s1)CCCCC2)C(=O)NC(N)=O` (stereo not shown), for which the “hERG current change (%, negative = inhibition) at 10uM” value is -32%. To `CCn1c(CSc2ncccn2)nnc1SCC(=O)N1c2ccccc2CC1C` (stereo not shown) belongs 5.84%; to `CCCCCCCC1=CC2=CC(=O)C(C)(OC(C)=O)C(=O)C2=CN1CCc1ccccc1` (stereo not shown), -62.3%; to `CC1CCCC(C)N1CC(O)COc1ccc(Cl)cc1` (stereo not shown), -65%. To `Cc1ccc(SCCSc2nc(N)cc(=O)[nH]2)cc1` belongs 14%; to `Cc1nn(C)c(C)c1S(=O)(=O)N1CCC(C(=O)NC(C)c2ccccc2)CC1` (stereo not shown), 8.56%. To `CCOC(=O)c1sc(=S)n(CC)c1NC(=O)CC` belongs 16.2%.

For `COC(=O)c1cc(C(=O)Nc2nnc(CC(C)C)s2)cc([N+](=O)[O-])c1`, the “hERG current change (%, negative = inhibition) at 10uM” value is -1.01%. For `CC(C)c1cc(C(=O)Nc2cccc(C(F)(F)F)c2)no1`, the “hERG current change (%, negative = inhibition) at 10uM” value came to 7.55%. To `CCOc1ccccc1NC(=O)NC(C)c1ccncc1` (stereo not shown) belongs 11.5%; to `Cc1nn(Cc2ccc([N+](=O)[O-])cc2)c(=O)n1-c1ccc(Cl)cc1`, -42.9%. On to `Cc1cc(C)c(O)c(-c2cc(C(=O)Nc3c(C)n(C)n(-c4ccccc4)c3=O)[nH]n2)c1`, for which the “hERG current change (%, negative = inhibition) at 10uM” value is -18.3%. To `CSc1ccc(S(=O)(=O)N2CCC(C(=O)NC3CC3)CC2)cc1` belongs -7.17%. The result for `COCCNc1oc(Cc2cccc3ccccc23)nc1C#N` reads 5.01%; that for `COc1cc(NC(=O)C2CC(c3c(F)cccc3Cl)=NO2)cc(OC)c1OC` (stereo not shown), -17.8%; that for `Brc1ccc2c(c1)[C@H]1OCC[C@H]1[C@@H](c1cccs1)N2`, -3.18%. The result for `Cc1ccc(-c2nnc(SCC(=O)NNC(=O)COc3cccc4ccccc34)n2C)cc1` reads 5.74%; that for `CCC(=O)Nc1ccc(Nc2nc(C)c([N+](=O)[O-])c(Nc3ccc(NC(=O)CC)cc3)n2)cc1`, 7.72%; that for `CC1=C(C(=O)OC(C)(C)C)C(c2ccco2)C(C#N)=C(N)O1` (stereo not shown), 17.3%. Consider `COc1cc(C(C)=O)ccc1OCc1cc(C(=O)N(C)CCC2CCCCO2)no1` (stereo not shown), for which the “hERG current change (%, negative = inhibition) at 10uM” value was determined as 6.35%. As to `O=C(COC(=O)c1ccccc1C(=O)c1ccc(Cl)c([N+](=O)[O-])c1)NC1CCCCCC1`, the “hERG current change (%, negative = inhibition) at 10uM” value worked out at 16%. Consider `COc1ccc(-c2[nH]nc3c2C(c2ccsc2)C(C#N)=C(N)O3)cc1` (stereo not shown), for which the “hERG current change (%, negative = inhibition) at 10uM” value turned out to be 16.6%.

For `COc1ccc(OCC(=O)Nc2c3c(nn2C(C)(C)C)CS(=O)(=O)C3)cc1`, the “hERG current change (%, negative = inhibition) at 10uM” value is -5.24%.

Take `O=[N+]([O-])c1cccc(C2(O)COc3ccccc3O2)c1` (stereo not shown): the “hERG current change (%, negative = inhibition) at 10uM” value was 9.17%. The result for `CCOc1ccc(OCC)c(S(=O)(=O)NC2CC(C)(C)NC(C)(C)C2)c1` reads 15.2%; that for `Cc1sc2nc(CSCC(=O)NC3(C#N)CCCCC3)[nH]c(=O)c2c1C`, 16.2%.
